{"source": "PubChem BioAssay AID1347417", "about": "(National Center for Advancing Translational Sciences (NCATS), 2020)", "note": "Among all 120,000 compounds or so, about 5,300 (4.4%) were called active. The inconclusive results got no clear call from the source; some entries with a clear call stand among them for comparison. The call rests on the fitted dose curve; in most records, active means well fitted inhibition curve with a large enough effect; inconclusive means small, poorly fitted or top-dose-only effect; inactive means no such curve, though single readings can be large or run the other way. Potencies of inconclusive entries are doubtful fits and often do not repeat. Potency means the concentration at half of the fitted maximal effect; tags describe the fitted curve by direction and shape.", "data": [{"experiment": "qHTS Primary assay for Inhibitors of Plasmodium falciparum Dd2 growth in vitro; further: nearly all actives have a fitted effect of over 65% in size;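 on activity, negative = inhibition: plate controls were DMSO vehicle for no effect and reference drug for full effect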", "details": "P. falciparum Dd2 growth, SYBR Green, 72 h; activity, negative = inhibition: at 28.9 µM (top of the series) unless noted; series mostly up to 28.9 µM", "in_short": "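Readout: SYBR Green fluorescence, 485 nm excitation, 535 nm emission, after ~16 h lysis at 37C. Before that, Dd2-infected red cells (2.5% hematocrit) grew 72 h with compound, 29 uM top final concentration.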", "values": [{"smiles": "COc1ccc(-c2onc(C)c2C(=O)NCCc2cccc(OC)c2)cc1", "activity, negative = inhibition": "inactive: 6.02%"}, {"smiles": "CN1CC2(C1)C(=O)N(C)C(=O)[C@@H]1C[C@@H](O)CN12", "activity, negative = inhibition": "inactive: 20% [at 44.1 µM]"}, {"smiles": "O=C(c1ccc(F)cc1)N1CCC2(CC1)CC(OCC1CC1)CCO2", "note": "(centres undefined)", "Potency": "inconclusive: 17.8 µM [inhibitor, single point]"}, {"smiles": "O=C(N[C@H]1CO[C@H]2[C@@H]1OC[C@@H]2n1nnnc1Oc1ccc(-n2ccnc2)cc1)N1CCOCC1", "activity, negative = inhibition": "inactive: -3.68%"}, {"smiles": "COc1ccccc1CC(=O)Nc1ccc2nc(Nc3cccc(Cl)c3)cc(C)c2c1", "Potency": "inconclusive: 17.8 µM [inhibitor, single point]"}, {"smiles": "Cc1ccc(C(=O)N2CC[C@@H]3CN(S(C)(=O)=O)[C@@H]3C2)cc1C", "activity, negative = inhibition": "inactive: 21.4%"}, {"smiles": "CC(C)NC(=O)N1Cc2ccccc2OC2(CCN(C(=O)c3cccc4[nH]ccc34)CC2)C1", "Potency": "active: 11.2 µM"}, {"smiles": "CCCc1noc(-c2cccn3c(CNC(=O)c4cccnc4)nnc23)n1", "Potency": "inconclusive: 1 µM [inhibitor, partial curve, poor fit]"}, {"smiles": "COCCN1C(=O)[C@@H]2C[C@@H](CN2C(=O)c2ccc3c(c2)OCO3)Oc2ccccc21", "activity, negative = inhibition": "inactive: -11.7% [at 44.1 µM]"}, {"smiles": "CCOC(=O)c1ccc(NC(=O)Cn2c(N3CCN(c4ccccc4)CC3)nc(C)cc2=O)cc1", "Potency": "inconclusive: 4.47 µM [inhibitor, partial curve, poor fit]"}, {"smiles": "CC(CN)(CN1CCOCC1)c1ccccn1", "note": "(centres undefined)", "activity, negative = inhibition": "inconclusive: -39.5% [inhibitor] [at 44.1 µM]"}, {"smiles": "CCN(Cc1cccc2nonc12)CC1CCCN(CCc2cccc(OC)c2)C1", "note": "(centres undefined)", "Potency": "inconclusive: 10 µM [inhibitor, single point]"}, {"smiles": "COc1ccc(NC(=O)CCc2nnc3n(Cc4ccc(C)cc4)c(=O)c4ccccc4n23)cc1", "Potency": "inconclusive: 2 µM [inhibitor, partial curve, poor fit]"}, {"smiles": "Cc1ccc(OCC(=O)NCC2CCCCC(=O)N2)cc1", "note": "(centres undefined)", "activity, negative = inhibition": "inactive: 5.03%"}, {"smiles": "CCc1ccccc1NC(=O)Cn1ccn(Cc2ccccc2)c(=O)c1=O", "activity, negative = inhibition": "inactive: -18.8%"}, {"smiles": "C#CCN(Cc1nc(-c2ccccc2OCC)oc1C)C1CCCCC1", "Potency": "inconclusive: 20 µM [inhibitor, partial curve, poor fit]"}, {"smiles": "Cc1cc(=O)n(CC(=O)Nc2ccccc2)c(N2CCc3ccccc3C2)n1", "outcome": "inactive"}, {"smiles": "O=C(CCc1ccccc1)N1CCc2c(nc(-c3ccc(F)cc3)[nH]c2=O)C1", "Potency": "inconclusive: 1.26 µM [inhibitor, partial curve]"}, {"smiles": "O=C1CC2CCN(CC3CCCCC3)CC2CCN1", "note": "(centres undefined)", "activity, negative = inhibition": "inactive: 3.32% [at 44.1 µM]"}, {"smiles": "O=C(NCc1ccc(F)cc1)N1CCC(Oc2ncccc2C(=O)N2CCCCC2)C1", "note": "(centres undefined)", "Potency": "inconclusive: 2 µM [inhibitor, single point]"}, {"smiles": "c1ccc(OCc2cc(CC3(NCc4ccco4)COC3)no2)cc1", "Potency": "inconclusive: 10 µM [inhibitor, single point]"}, {"smiles": "Cc1cccc(C(=O)N2CCC(OC3CCN(C)CC3)CC2)c1", "Potency": "inconclusive: 20 µM [inhibitor, single point]"}, {"smiles": "CN(C)c1ccc(C(=O)N2CC[C@@H](CC(=O)O)[C@@H](CCN3CCN(c4ccc(F)cc4)CC3)C2)cc1", "activity, negative = inhibition": "inactive: 2.32%"}, {"smiles": "CCC(O)Cn1nc(-c2ccco2)nc1-c1ccccc1-c1nn[nH]n1", "note": "(centres undefined)", "activity, negative = inhibition": "inactive: 14.9%"}, {"smiles": "COc1ccc(CCNC(=O)c2ccc3c(c2)ncn3-c2ccc(C(C)C)cc2)cc1OC", "Potency": "active: 11.2 µM"}, {"smiles": "O=C(NC1CCCN(c2cc(-c3ccc(F)cc3)[nH]n2)C1)c1ccc2ncccc2c1", "note": "(centres undefined)", "Potency": "inconclusive: 0.126 µM [inhibitor, full curve]"}, {"smiles": "Cn1c2ccccc2c2cnn(CC(=O)NCCCN3CCN(c4ccccc4F)CC3)c(=O)c21", "Potency": "inconclusive: 11.2 µM [inhibitor, single point]"}, {"smiles": "NC(=O)Cn1ccc2cc(OCC3CCN(c4cnccn4)CC3)cnc21", "outcome": "inactive [at 44.1 µM]"}, {"smiles": "CC(=O)Nc1c(C)nn(-c2ccccc2)c1N1CCC(C(=O)Nc2ccccc2F)CC1", "Potency": "inconclusive: 17.8 µM [inhibitor, partial curve, poor fit]"}, {"smiles": "COCCCn1c(C)cc(C(=O)NCC(=O)N2CCCCCNC(=O)CC2c2ccccc2)c1C", "note": "(centres undefined)", "Potency": "inconclusive: 3.16 µM [inhibitor, full curve, poor fit]"}, {"smiles": "N#Cc1ccccc1Cn1cnc2nc3c(cc2c1=O)CCCC3", "activity, negative = inhibition": "inconclusive: -56% [inhibitor] [at 5.79 µM]"}, {"smiles": "COc1ccccc1NC(=O)c1sc2nc3c(cc2c1N)CN(Cc1ccccc1)CC3", "Potency": "inconclusive: 12.6 µM [inhibitor, partial curve, poor fit]"}, {"smiles": "Cc1noc2c(-c3cccnc3NC3CCN(C)CC3)cc(-c3ccccc3)nc12", "Potency": "inconclusive: 22.4 µM [inhibitor, single point]"}, {"smiles": "COCCn1c(C)cc(O)c(C(c2ccc(F)cc2)N2CCN(c3ccccc3)CC2)c1=O", "note": "(centres undefined)", "outcome": "inactive"}, {"smiles": "CC(=O)c1cccc(C(=O)N2CCC3(CC2)NC(=O)N(Cc2ccc(C)cc2)C3=O)c1", "outcome": "inactive"}, {"smiles": "COC[C@@H]1CN(Cc2ccc(OC)c(C)c2)C[C@H]1C(=O)N(C)C", "Potency": "inconclusive: 1.58 µM [inhibitor, full curve, poor fit]"}, {"smiles": "O=C(c1ccc(Oc2ccccc2)cc1)N1CCc2c(n(Cc3cccnc3)n(-c3ccccc3)c2=O)C1", "Potency": "inconclusive: 4.47 µM [inhibitor, single point]"}, {"smiles": "COC(=O)[C@@H]1Cc2ncn(Cc3ccc(OC)cc3)c2CN1Cc1ccc(F)cc1", "activity, negative = inhibition": "inactive: -7.16% [at 44.1 µM]"}, {"smiles": "CSc1ccc(CCNC(=O)c2cc3cc(S(=O)(=O)N4CCCCC4)ccc3n2C)cc1", "Potency": "inconclusive: 17.8 µM [inhibitor, single point]"}, {"smiles": "COc1ccc(CNc2nc(SCc3ccccc3Cl)nc3ccccc23)cc1", "outcome": "inactive"}, {"smiles": "O=C(Nc1ccc([C@@H](O)[C@H]2COCC(=O)N2Cc2ccccc2F)cc1)c1ccc2c(c1)OCO2", "Potency": "inconclusive: 10 µM [inhibitor, single point]"}, {"smiles": "CCOC(=O)CCNC(=O)N1[C@H]2CC[C@@H]1c1cnc(-c3ccccc3)nc1C2", "Potency": "inconclusive: 11.2 µM [inhibitor, single point]"}, {"smiles": "COCC1CN(C(C)=O)CC12CCN(C(=O)NCc1ccc(F)cc1)CC2", "note": "(centres undefined)", "activity, negative = inhibition": "inactive: 37.8%"}, {"smiles": "Fc1ccccc1Nc1ccnc(N2CC3CCC(C2)N3CC(F)(F)F)n1", "Potency": "inconclusive: 11.2 µM [inhibitor, single point]"}]}]}
